Data taken from the supplement of paper PMC8728848.
The other results are listed elsewhere or left out.

Experiments:
Assay in all cases: glycan array binding signal (z-score within array); higher = stronger binding
Conditions in all cases: glycan notation: IUPAC condensed, linker removed
[1] = molecular target: GlcNAc(b1-3)Gal(b1-4)GlcNAc(b1-3)Gal(b1-4)GlcNAc(b1-3)Gal(b1-4)GlcNAc(b1-3)Gal(b1-4)GlcNAc(b1-2)[GlcNAc(b1-3)Gal(b1-4)GlcNAc(b1-3)Gal(b1-4)GlcNAc(b1-3)Gal(b1-4)GlcNAc(b1-3)Gal(b1-4)GlcNAc(b1-6)]Man(a1-6)[GlcNAc(b1-3)Gal(b1-4)GlcNAc(b1-3)Gal(b1-4)GlcNAc(b1-3)Gal(b1-4)GlcNAc(b1-3)Gal(b1-4)GlcNAc(b1-2)Man(a1-3)]Man(b1-4)GlcNAc(b1-4)[Fuc(a1-6)]GlcNAc
Procedure, shortened: (§1)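 The binding signal is a Z-score computed within each array. Data were drawn from 3228 arrays in the Consortium for Functional Glycomics database, restricted to those with a known protein sequence. Scores were averaged over arrays of the same protein sequence at different concentrations or buffers, and over linkers, and negative values can be taken as non-binding.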

[2] = molecular target: GlcNAc(b1-3)Gal(b1-4)GlcNAc(b1-3)Gal(b1-4)GlcNAc(b1-3)GalNAc
Procedure, shortened: as §1

[3] = molecular target: GlcNAc(b1-3)Gal(b1-4)GlcNAc(b1-3)GalNAc
Procedure, shortened: as §1

[4] = molecular target: GlcNAc(b1-3)Gal(b1-4)GlcNAc(b1-3)[GlcNAc(b1-3)Gal(b1-4)GlcNAc(b1-3)]GalNAc
Procedure, shortened: as §1

[5] = molecular target: GlcNAc(b1-3)Gal(b1-4)GlcNAc(b1-6)[Gal(b1-3)]GalNAc
Procedure, shortened: as §1

[6] = molecular target: GlcNAc(b1-3)Gal(b1-4)GlcNAc(b1-6)[GlcNAc(b1-3)Gal(b1-3)]GalNAc
Procedure, shortened: as §1

[7] = molecular target: GlcNAc(b1-3)Gal(b1-4)GlcNAc(b1-6)[GlcNAc(b1-3)]Gal(b1-4)GlcNAc
Procedure, shortened: as §1

[8] = molecular target: GlcNAc(b1-3)GalNAc
Procedure, shortened: as §1

[9] = molecular target: GlcNAc(b1-3)Man
Procedure, shortened: as §1

[10] = molecular target: GlcNAc(b1-3)[GlcNAc(b1-4)][GlcNAc(b1-6)]GlcNAc
Procedure, shortened: as §1

[11] = molecular target: GlcNAc(b1-3)[GlcNAc(b1-6)]Gal(b1-4)GlcNAc
Procedure, shortened: as §1

[12] = molecular target: GlcNAc(b1-3)[GlcNAc(b1-6)]GalNAc
Procedure, shortened: as §1

[13] = molecular target: GlcNAc(b1-4)Gal(b1-4)GlcNAc
Procedure, shortened: as §1

[14] = molecular target: GlcNAc(b1-4)GlcNAc
Procedure, shortened: as §1

[15] = molecular target: GlcNAc(b1-4)GlcNAc(b1-4)GlcNAc
Procedure, shortened: as §1

[16] = molecular target: GlcNAc(b1-4)GlcNAc(b1-4)GlcNAc(b1-4)GlcNAc(b1-4)GlcNAc
Procedure, shortened: as §1

[17] = molecular target: GlcNAc(b1-4)GlcNAc(b1-4)GlcNAc(b1-4)GlcNAc(b1-4)GlcNAc(b1-4)GlcNAc
Procedure, shortened: as §1

[18] = molecular target: GlcNAc(b1-4)[GlcNAc(b1-6)]GalNAc
Procedure, shortened: as §1

[19] = molecular target: GlcNAc(b1-6)Gal(b1-4)GlcNAc
Procedure, shortened: as §1

[20] = molecular target: GlcNAc(b1-6)GalNAc
Procedure, shortened: as §1

[21] = molecular target: GlcNAc6S(b1-3)Gal(b1-4)GlcNAc
Procedure, shortened: as §1

[22] = molecular target: Kdn(a2-3)Gal(b1-3)GalNAc
Procedure, shortened: as §1

[23] = molecular target: Kdn(a2-3)Gal(b1-3)GlcNAc
Procedure, shortened: as §1

[24] = molecular target: Kdn(a2-3)Gal(b1-4)Glc
Procedure, shortened: as §1

[25] = molecular target: Kdn(a2-3)Gal(b1-4)GlcNAc
Procedure, shortened: as §1

[26] = molecular target: Kdn(a2-3)Gal(b1-4)[Fuc(a1-3)]GlcNAc
Procedure, shortened: as §1

[27] = molecular target: Kdn(a2-6)Gal(b1-4)GlcNAc
Procedure, shortened: as §1

[28] = molecular target: Man(a1-2)Man(a1-2)Man(a1-3)Man
Procedure, shortened: as §1

[29] = molecular target: Man(a1-2)Man(a1-2)Man(a1-6)[Man(a1-3)]Man
Procedure, shortened: as §1

[30] = molecular target: Man(a1-2)Man(a1-3)Man
Procedure, shortened: as §1

[31] = molecular target: Man(a1-2)Man(a1-3)[Man(a1-2)Man(a1-6)]Man
Procedure, shortened: as §1

[32] = molecular target: Man(a1-2)Man(a1-3)[Man(a1-2)Man(a1-6)]Man(a1-6)[Man(a1-2)Man(a1-2)Man(a1-3)]Man
Procedure, shortened: as §1

[33] = molecular target: Man(a1-2)Man(a1-3)[Man(a1-2)Man(a1-6)]Man(a1-6)[Man(a1-2)Man(a1-2)Man(a1-3)]Man(b1-4)GlcNAc(b1-4)GlcNAc
Procedure, shortened: as §1

[34] = molecular target: Man(a1-2)Man(a1-3)[Man(a1-6)]Man(a1-6)[Man(a1-2)Man(a1-3)]Man(b1-4)GlcNAc(b1-4)GlcNAc
Procedure, shortened: as §1

[35] = molecular target: Man(a1-2)Man(a1-6)[Man(a1-3)]Man(a1-6)[Man(a1-2)Man(a1-2)Man(a1-3)]Man
Procedure, shortened: as §1

[36] = molecular target: Man(a1-2)Man(a1-6)[Man(a1-3)]Man(a1-6)[Man(a1-2)Man(a1-2)Man(a1-3)]Man(b1-4)GlcNAc(b1-4)GlcNAc
Procedure, shortened: as §1

[37] = molecular target: Man(a1-3)[Man(a1-6)]Man
Procedure, shortened: as §1

[38] = molecular target: Man(a1-3)[Man(a1-6)]Man(a1-6)[Man(a1-2)Man(a1-3)]Man(b1-4)GlcNAc(b1-4)GlcNAc
Procedure, shortened: as §1

[39] = molecular target: Man(a1-3)[Man(a1-6)]Man(a1-6)[Man(a1-3)]Man
Procedure, shortened: as §1

[40] = molecular target: Man(a1-3)[Man(a1-6)]Man(a1-6)[Man(a1-3)]Man(b1-4)GlcNAc(b1-4)GlcNAc
Procedure, shortened: as §1

[41] = molecular target: Man(a1-3)[Man(a1-6)]Man(b1-4)GlcNAc(b1-4)GlcNAc
Procedure, shortened: as §1

[42] = molecular target: Man(a1-3)[Man(a1-6)]Man(b1-4)GlcNAc(b1-4)[Fuc(a1-6)]GlcNAc
Procedure, shortened: as §1

[43] = molecular target: Man(a1-6)Man
Procedure, shortened: as §1

[44] = molecular target: Man(b1-4)GlcNAc
Procedure, shortened: as §1

[45] = molecular target: MurNAc(b1-4)GlcNAc
Procedure, shortened: as §1

B1: SSR2 (Sclerotium rolfsii) (protein)
chain: MVYKITVRVYQTNPDAFFHPVEKTVWKYANGGTWSITDDQHVLTMGGSGTSGTLRFHADNGESFTATFGVHNYKRWCDIVTNLAADETGMVINQQYYSQKNREEARERQLSNYQVKNAKGRNFQIVYTEAEGNDLHANLIIG
glycan array binding signal (z-score) [1]: 1.3 | glycan array binding signal (z-score) [2]: 0.61 | glycan array binding signal (z-score) [3]: 0.796 | glycan array binding signal (z-score) [4]: 0.552 | glycan array binding signal (z-score) [5]: 1.82 | glycan array binding signal (z-score) [6]: 1.62 | glycan array binding signal (z-score) [7]: 0.989 | glycan array binding signal (z-score) [8]: -0.192 | glycan array binding signal (z-score) [9]: -0.149 | glycan array binding signal (z-score) [10]: -0.291 | glycan array binding signal (z-score) [11]: 0.608 | glycan array binding signal (z-score) [12]: -0.273 | glycan array binding signal (z-score) [13]: -0.288 | glycan array binding signal (z-score) [14]: -0.155 | glycan array binding signal (z-score) [15]: 0.796 | glycan array binding signal (z-score) [16]: 0.569 | glycan array binding signal (z-score) [17]: -0.151 | glycan array binding signal (z-score) [18]: -0.281 | glycan array binding signal (z-score) [19]: 0.916 | glycan array binding signal (z-score) [20]: 0.099 | glycan array binding signal (z-score) [21]: -0.272 | glycan array binding signal (z-score) [22]: 0.889 | glycan array binding signal (z-score) [23]: -0.277 | glycan array binding signal (z-score) [24]: -0.279 | glycan array binding signal (z-score) [25]: -0.279 | glycan array binding signal (z-score) [26]: -0.273 | glycan array binding signal (z-score) [27]: -0.283 | glycan array binding signal (z-score) [28]: -0.282 | glycan array binding signal (z-score) [29]: -0.289 | glycan array binding signal (z-score) [30]: -0.269 | glycan array binding signal (z-score) [31]: -0.283 | glycan array binding signal (z-score) [32]: -0.301 | glycan array binding signal (z-score) [33]: -0.345 | glycan array binding signal (z-score) [34]: -0.276 | glycan array binding signal (z-score) [35]: -0.303 | glycan array binding signal (z-score) [36]: -0.294 | glycan array binding signal (z-score) [37]: -0.286 | glycan array binding signal (z-score) [38]: -0.244 | glycan array binding signal (z-score) [39]: -0.275 | glycan array binding signal (z-score) [40]: -0.271 | glycan array binding signal (z-score) [41]: 0.392 | glycan array binding signal (z-score) [42]: -0.287 | glycan array binding signal (z-score) [43]: -0.266 | glycan array binding signal (z-score) [44]: -0.281 | glycan array binding signal (z-score) [45]: -0.283
